Data taken from the supplement of paper PMC11348887.
Structures can show the parent of a compound that is named as a salt. Some of the results follow. No stated cut-off is given here; in the data, active = -2 or less and inactive = the rest. Single values are uncertain, as repeats are few or missing.
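Further: nuclei counted from DAPI counterstain by automated high-content image analysis, four fields per well at ×20 in 384-well plates, with sequential b-score then z-score normalization.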

The molecules below were run on hPSC-derived cortical neurons (WA09) (assay: nuclei number (viability) z-score; higher = more surviving cells). Settings: 5 µM; treatment: days 7-14 after plating, readout day 21.
`C[C@@](Cc1ccc(O)c(O)c1)(NN)C(=O)O` [Carbidopa] was tested, and the “nuclei number (z-score)” value was inactive: -0.248.
With `O=C(Oc1cccc(F)c1OC(=O)c1cccc(O)c1)c1cccc(O)c1` the “nuclei number (z-score)” value was active: -4.53.
In the case of `CCOc1nc2cccc(C(=O)O)c2n1Cc1ccc(-c2ccccc2-c2nnn[nH]2)cc1` [Candesartan], the “nuclei number (z-score)” value is reported as inactive: 0.0951.
In the case of `NC(=O)[C@@H]1CSSCCC(=O)N[C@@H](CCCCN=C(N)N)C(=O)NCC(=O)N[C@@H](CC(=O)O)C(=O)N[C@@H](Cc2c[nH]c3ccccc23)C(=O)N2CCC[C@H]2C(=O)N1` [Eptifibatide Acetate], the “nuclei number (z-score)” value is reported as inactive: 0.658.
In the case of `CCCCC(CC)COC(=O)CC(C(=O)OCC(CC)CCCC)S(=O)(=O)O` (stereo not given) [Docusate Sodium], the “nuclei number (z-score)” value is reported as inactive: 0.454.
`Nc1ncnc2c1ncn2[C@@H]1O[C@H](CO)[C@@H](O)[C@@H]1O` [Vidarabine] was tested, and the “nuclei number (z-score)” value was inactive: -0.0777.
For `CC1CCN(CC[C@H]2CCCN2S(=O)(=O)c2cccc(O)c2)CC1`, the “nuclei number (z-score)” value was inactive: -0.00247.
In the case of `COc1cccc(C=NCCN=Cc2cccc(OC)c2[O-])c1[O-].[Cl-].[Mn+3]`, the “nuclei number (z-score)” value is reported as inactive: -0.762.
With `COC(=O)Nc1nc2cc(Sc3ccccc3)ccc2[nH]1` [Fenbendazole] the “nuclei number (z-score)” value was inactive: -0.0278.
`Cc1ccc([C@@H]2O[C@H](CO)[C@@H](O)[C@H](O)[C@H]2O)cc1Cc1ccc(-c2ccc(F)cc2)s1` [Canagliflozin] was tested, and the “nuclei number (z-score)” value was inactive: 2.72.
`CC(C)(C)c1cc(C(C)(C)C)c(NC(=O)c2c[nH]c3ccccc3c2=O)cc1O` [Ivacaftor (VX-770)] was tested, and the “nuclei number (z-score)” value was inactive: 0.407.
For `CC(C)NC[C@@H](C(=O)N1CCN(c2ncnc3c2[C@H](C)C[C@H]3O)CC1)c1ccc(Cl)cc1`, the “nuclei number (z-score)” value was active: -3.01.
In the case of `Oc1cc2c(cc1O)C(c1ccccc1)CNCC2` (stereo not given), the “nuclei number (z-score)” value is reported as inactive: 0.0562.
`Cn1c(=O)c2c(ncn2CC2OCCO2)n(C)c1=O` [Doxofylline] was tested, and the “nuclei number (z-score)” value was inactive: -0.324.
In the case of `COCC(=O)NC/C=C/c1ccc2ncnc(Nc3ccc(Oc4ccc(C)nc4)c(C)c3)c2c1`, the “nuclei number (z-score)” value is reported as inactive: 6.83.
In the case of `CCCCNc1ncc(C(=O)NCc2ccc(-n3ccnc3)cc2)c(NC2CCC(O)CC2)n1` (stereo not given), the “nuclei number (z-score)” value is reported as inactive: -0.468.
In the case of `C=CC(=O)Nc1cccc(Sc2nc(Nc3ccc(N4CCN(C)CC4)cc3)ncc2Cl)c1`, the “nuclei number (z-score)” value is reported as active: -3.68.
With `CCOC(=O)[C@H]1O[C@@H]1C(=O)N[C@@H](CC(C)C)C(=O)NCCC(C)C` [Aloxistatin] the “nuclei number (z-score)” value was inactive: 0.357.
In the case of `CN[C@H]1CC[C@@H](c2ccc(Cl)c(Cl)c2)c2ccccc21` [Sertraline HCl], the “nuclei number (z-score)” value is reported as inactive: -1.85.
With `OCCn1cc(-c2ccc3c(c2)CC/C3=N\O)c(-c2ccncc2)n1` the “nuclei number (z-score)” value was inactive: 0.927.
`CN1CCc2nc(C(=O)N[C@@H]3C[C@@H](C(=O)N(C)C)CC[C@@H]3NC(=O)C(=O)Nc3ccc(Cl)cn3)sc2C1` [Edoxaban] was tested, and the “nuclei number (z-score)” value was inactive: -0.692.
With `CC[C@H]1OC(=O)[C@H](C)[C@@H](O[C@H]2C[C@@](C)(OC)[C@@H](O)[C@H](C)O2)[C@H](C)[C@@H](O[C@@H]2O[C@H](C)C[C@H](N(C)C)[C@H]2O)[C@](C)(O)C[C@@H](C)CN(C)[C@H](C)[C@@H](O)[C@]1(C)O` [Azithromycin Dihydrate] the “nuclei number (z-score)” value was inactive: 0.0547.
With `CC[C@H]1OC(=O)[C@H](C)[C@@H](O[C@H]2C[C@@](C)(OC)[C@@H](O)[C@H](C)O2)[C@H](C)[C@@H](O[C@@H]2O[C@H](C)C[C@H](N(C)C)[C@H]2O)[C@](C)(O)C[C@@H](C)CN(C)[C@H](C)[C@@H](O)[C@]1(C)O` [Azithromycin] the “nuclei number (z-score)” value was inactive: 0.212.
For `Cc1ccc(-c2cc(C(F)(F)F)nn2-c2ccc(S(N)(=O)=O)cc2)cc1` [Celecoxib], the “nuclei number (z-score)” value was inactive: 0.00989.
`CC(C)[N+]1(C)[C@@H]2CC[C@H]1C[C@@H](OC(=O)C(CO)c1ccccc1)C2` (stereo not given in full) [Ipratropium Bromide] was tested, and the “nuclei number (z-score)” value was inactive: 3.13.
With `O=C(O)c1cccc(-c2noc(-c3ccccc3F)n2)c1` [Ataluren (PTC124)] the “nuclei number (z-score)” value was inactive: 0.257.
With `Nc1ccc(S(=O)(=O)Nc2nccs2)cc1` [Sulfathiazole] the “nuclei number (z-score)” value was inactive: -0.802.
In the case of `C=C[C@]1(C)C[C@@H](OC(=O)CSC(C)(C)CNC(=O)[C@H](N)C(C)C)[C@]2(C)[C@H](C)CC[C@]3(CCC(=O)[C@H]32)[C@@H](C)[C@@H]1O` [Valnemulin HCl], the “nuclei number (z-score)” value is reported as inactive: 0.398.
For `Cc1c(-c2ccc(O)cc2)n(Cc2ccc(OCCN3CCCCCC3)cc2)c2ccc(O)cc12` [Bazedoxifene HCl], the “nuclei number (z-score)” value was active: -4.04.
In the case of `Cc1c(-c2ccc(O)cc2)n(Cc2ccc(OCCN3CCCCCC3)cc2)c2ccc(O)cc12` [Bazedoxifene Acetate], the “nuclei number (z-score)” value is reported as active: -6.01.
`CCc1cc2c(cc1CC)CC(NC[C@H](O)c1ccc(O)c3[nH]c(=O)ccc13)C2` [Indacaterol Maleate] was tested, and the “nuclei number (z-score)” value was inactive: 0.336.
For `CCN(CC)CCNC(=O)c1ccc(N)cc1` [Procainamide HCl], the “nuclei number (z-score)” value was inactive: -0.909.
For `NC[C@H](O)c1ccc(O)c(O)c1` [Noradrenaline bitartrate monohydrate], the “nuclei number (z-score)” value was inactive: 0.43.
With `CC(C=CC1(O)C(C)=CC(=O)CC1(C)C)=CC(=O)O` (stereo not given) [Abscisic Acid (Dormin_] the “nuclei number (z-score)” value was inactive: 0.833.
In the case of `O=[N+]([O-])c1ccc(Nc2nc(N3CCOCC3)nc(N3CCOCC3)n2)cc1`, the “nuclei number (z-score)” value is reported as inactive: 2.07.
With `CCCCOc1cc(C(=O)OCCN(CC)CC)ccc1N` [Oxybuprocaine HCl] the “nuclei number (z-score)” value was inactive: -0.557.
In the case of `O=C1O[C@H]([C@@H](O)CO)C([O-])=C1O.[Na+]` [Sodium ascorbate], the “nuclei number (z-score)” value is reported as inactive: 0.936.
For `N#C/C(=C1/SC[C@@H](c2ccc(Cl)cc2Cl)S1)n1ccnc1` [Luliconazole], the “nuclei number (z-score)” value was inactive: 0.0842.
For `CCOC(=O)C1=C(N)Oc2ccc(Br)cc2C1C(C#N)C(=O)OCC` (stereo not given), the “nuclei number (z-score)” value was inactive: 2.
With `Cc1cc(C(C)Nc2ccccc2)c2nc(N3CCOCC3)cc(=O)n2c1` (stereo not given) the “nuclei number (z-score)” value was inactive: 0.748.
`NC1(Cc2ccc(Cl)cc2)CCN(c2ncnc3[nH]ccc23)CC1` was tested, and the “nuclei number (z-score)” value was inactive: 0.824.
For `N[C@H]1CC[C@H](N[C@@H]2C[C@H]2c2ccccc2)CC1`, the “nuclei number (z-score)” value was inactive: -0.396.
For `CC(C)Oc1ccc2c(=O)c(-c3ccccc3)coc2c1` [Ipriflavone (Osteofix)], the “nuclei number (z-score)” value was inactive: 3.4.
`CC(=O)Nc1nnc(S(N)(=O)=O)s1` [Acetazolamide] was tested, and the “nuclei number (z-score)” value was inactive: 0.217.
`CCCCOc1ccc(C(=O)Nc2ccc(F)cc2F)cc1` was tested, and the “nuclei number (z-score)” value was inactive: 0.304.
For `Nc1nc(OCc2cc(Br)cs2)c2[nH]cnc2n1` [Lomeguatrib], the “nuclei number (z-score)” value was inactive: 0.325.
For `Clc1ccc2nsnc2c1NC1=NCCN1` [Tizanidine HCl], the “nuclei number (z-score)” value was inactive: -0.0784.
In the case of `Cc1cc(Nc2cc(N3CCN(C)CC3)nc(Sc3ccc(NC(=O)C4CC4)cc3)n2)n[nH]1` [VX-680 (Tozasertib_ MK-0457)], the “nuclei number (z-score)” value is reported as inactive: 0.359.
With `C=C[C@](C)(O)CC[C@@H]1[C@@]2(C)CCCC(C)(C)[C@@H]2CC[C@@]1(C)O` [Sclareol] the “nuclei number (z-score)” value was inactive: 0.095.
In the case of `CO/N=C(\C(=O)N[C@@H]1C(=O)N2C(C(=O)O)=C(COC(C)=O)CS[C@H]12)c1csc(N)n1` [Cefotaxime sodium], the “nuclei number (z-score)” value is reported as inactive: -0.595.
For `Clc1ccc(C2(c3ccc(-c4cn[nH]c4)cc3)CCNCC2)cc1`, the “nuclei number (z-score)” value was inactive: 0.823.
`CNC(=O)[C@@H](NC(=O)[C@H](CC(C)C)[C@H](O)C(=O)NO)C(C)(C)C` [Marimastat(BB-2516)] was tested, and the “nuclei number (z-score)” value was inactive: 0.557.
In the case of `C[C@]12CC[C@@H]3c4ccc(O)cc4C[C@@H](CCCCCCCCC[S+]([O-])CCCC(F)(F)C(F)(F)F)[C@H]3[C@@H]1CC[C@@H]2O` (stereo not given in full) [Fulvestrant], the “nuclei number (z-score)” value is reported as inactive: 13.8.
`COC(=O)[C@H](Cc1ccccc1)NC(=O)[C@@H](N)CC(=O)O` [Aspartame] was tested, and the “nuclei number (z-score)” value was inactive: -0.305.
`CCS(=O)(=O)c1cccc(-c2cc(C(=O)NC3CCN(C)CC3)c(C)c3[nH]c4ncc(C)cc4c23)c1` was tested, and the “nuclei number (z-score)” value was active: -6.62.
In the case of `CC(C(O)c1ccc(O)cc1)N1CCC(Cc2ccccc2)CC1` (stereo not given) [Ifenprodil Tartrate], the “nuclei number (z-score)” value is reported as active: -3.84.
For `C[C@@H]1C/C=C/C=C/C=C/C=C/[C@H](O[C@@H]2O[C@H](C)[C@@H](O)[C@H](N)[C@@H]2O)C[C@@H]2O[C@](O)(C[C@@H](O)C[C@H]3O[C@@H]3/C=C/C(=O)O1)C[C@H](O)[C@H]2C(=O)O` [Natamycin], the “nuclei number (z-score)” value was inactive: 2.9.
In the case of `CC1=NN(c2ccc(C)c(C)c2)C(=O)/C1=N\Nc1cccc(-c2cccc(C(=O)O)c2)c1O` [Eltrombopag Olamine], the “nuclei number (z-score)” value is reported as inactive: 0.213.
In the case of `CC1=NN(c2ccc(C)c(C)c2)C(=O)/C1=N\Nc1cccc(-c2cccc(C(=O)O)c2)c1O` [Eltrombopag], the “nuclei number (z-score)” value is reported as inactive: 0.407.
For `CCn1c(=O)c2c(nc(/C=C/c3ccc(OC)c(OC)c3)n2C)n(CC)c1=O` [Istradefylline], the “nuclei number (z-score)” value was inactive: -0.557.
`Cc1ccc(OCC(O)C(C)NC(C)C)c2c1CCC2` (stereo not given) was tested, and the “nuclei number (z-score)” value was inactive: -0.346.
In the case of `Cc1cc(C)nc(NS(=O)(=O)c2ccc(N)cc2)n1` [Sulfamethazine], the “nuclei number (z-score)” value is reported as inactive: 1.04.
In the case of `CC1(C)O[C@@H]2C[C@H]3[C@@H]4C[C@H](F)C5=CC(=O)C=C[C@]5(C)[C@@]4(F)[C@@H](O)C[C@]3(C)[C@]2(C(=O)CO)O1` [Fluocinolone Acetonide], the “nuclei number (z-score)” value is reported as inactive: 0.371.
`COC(=O)N/N=C/c1c[n+]([O-])c2ccccc2[n+]1[O-]` [Carbadox] was tested, and the “nuclei number (z-score)” value was inactive: 1.55.
For `CC(C)(Oc1ccc(Cl)cc1)C(=O)OCCOC(=O)c1cccnc1` [Etofibrate], the “nuclei number (z-score)” value was inactive: -0.728.
